The labels stand for the following.
B1: Caulobacter ParB omega fusion; a variant is named by its letters at X, in order, B8GW30 (parent)
chain: MESVVVGEPGMSEGRRGLGRGLSALLGEVDAAPAQAPGEQLGGSREAPIEILQRNPDQPRRTFREEDLEDLSNSIREKGVLQPILVRPSPDTAGEYQIVAGERAWRAAQRAGLKTVPIMVRELDDLAVLEIGIIENVQRADLNVLEEALSYKVLMEKFERTQENIAQTIGKSXSHVANXMRLLXLPDEVQSYLVSGELTAXHARAIAAAADPVALAKQIIEGGLSVRETEALARKAPNLSAGKSKGGRPPRVKDTDTQALESDLSSVLGLDVSIDHRGSTGTLTITYATLEQLDDLCNRLTRGI

In all, about 81,000 sequences were measured (“one-hybrid fitness for binding parS DNA”: median about -0.17, highest 2% from about 0.51 on). This is one part of the list.

This test covers variants of B1. Kind of test: one-hybrid fitness for binding parS DNA (scaled: cognate 1, non-cognate 0); higher = stronger binding. The note with it: with parS DNA site. The method, boiled down: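 Bacterial one-hybrid selection in E. coli USO rpoZ- hisB- pyrF- with a HIS3 reporter carrying the site 19 bp from the promoter, screening Caulobacter ParB libraries with four specificity codons randomised (NNS). Cells grew 48 hours at 37°C on M9-minus-histidine plus 0.1 mM IPTG and 5 mM 3-AT. Plasmids before and after selection were Illumina-sequenced, three replicate libraries pooled, and variants under 10 reads dropped. Fitness is the log change in variant-to-wild-type read ratio, rescaled to cognate 1, non-cognate 0.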
For PDKL, the “one-hybrid fitness for binding parS DNA” value was at most 0.2.
For the variant TGNQ, the “one-hybrid fitness for binding parS DNA” value was at most 0.2.
Consider RPHE, for which the “one-hybrid fitness for binding parS DNA” value is at most 0.2.
As for RVHT, the “one-hybrid fitness for binding parS DNA” value came to 0.927.
For the variant GHCW, the “one-hybrid fitness for binding parS DNA” value was at most 0.2.
As to QTTK, the “one-hybrid fitness for binding parS DNA” value is at most 0.2.
Turning to TIES, the “one-hybrid fitness for binding parS DNA” value is at most 0.2.
Turning to AYYN, the “one-hybrid fitness for binding parS DNA” value is at most 0.2.
For QCYI, the “one-hybrid fitness for binding parS DNA” value is at most 0.2.
As to IFWS, the “one-hybrid fitness for binding parS DNA” value is at most 0.2.
Consider NIYS, for which the “one-hybrid fitness for binding parS DNA” value is at most 0.2.
As to KSPY, the “one-hybrid fitness for binding parS DNA” value is at most 0.2.
Next, CKAT: at most 0.2; YCHW: at most 0.2; RGCG: 0.558.
As for TGAP, the “one-hybrid fitness for binding parS DNA” value was at most 0.2.
As for SQDV, the “one-hybrid fitness for binding parS DNA” value was at most 0.2.
With CCAD, the “one-hybrid fitness for binding parS DNA” value was at most 0.2.
For VLKR the value was at most 0.2; for QTHQ, at most 0.2.
Turning to RMCV, the “one-hybrid fitness for binding parS DNA” value is at most 0.2.
VKLI: the “one-hybrid fitness for binding parS DNA” value is at most 0.2.
As to TGKM, the “one-hybrid fitness for binding parS DNA” value was at most 0.2.
RQWR: the “one-hybrid fitness for binding parS DNA” value is at most 0.2.
As to PSGQ, the “one-hybrid fitness for binding parS DNA” value was at most 0.2.
For MSEA the value was at most 0.2; for QQMK, at most 0.2.
Consider QVRA, for which the “one-hybrid fitness for binding parS DNA” value is at most 0.2.
On to TVCI, for which the “one-hybrid fitness for binding parS DNA” value is at most 0.2.
Consider MREA, for which the “one-hybrid fitness for binding parS DNA” value is at most 0.2.
On to QAMA, for which the “one-hybrid fitness for binding parS DNA” value is at most 0.2.
Consider VNNI, for which the “one-hybrid fitness for binding parS DNA” value is at most 0.2.
With QAVY, the “one-hybrid fitness for binding parS DNA” value was at most 0.2.
Consider YGVR, for which the “one-hybrid fitness for binding parS DNA” value is at most 0.2.
As for CSGG, the “one-hybrid fitness for binding parS DNA” value was at most 0.2.
Consider ESNS, for which the “one-hybrid fitness for binding parS DNA” value is at most 0.2.
With QPCV, the “one-hybrid fitness for binding parS DNA” value was at most 0.2.
As to DNPC, the “one-hybrid fitness for binding parS DNA” value is at most 0.2.
In the case of HLST, the “one-hybrid fitness for binding parS DNA” value was at most 0.2.
For HKMM the value was at most 0.2.
Turning to YAPR, the “one-hybrid fitness for binding parS DNA” value was at most 0.2.
HDQT: the “one-hybrid fitness for binding parS DNA” value was at most 0.2.
Consider AFTW, for which the “one-hybrid fitness for binding parS DNA” value is at most 0.2.
Turning to QDLD, the “one-hybrid fitness for binding parS DNA” value was at most 0.2.
With TRST, the “one-hybrid fitness for binding parS DNA” value is at most 0.2.
For the variant PYTI, the “one-hybrid fitness for binding parS DNA” value is at most 0.2.
For QHKA, the “one-hybrid fitness for binding parS DNA” value is at most 0.2.
Take LGMY: the “one-hybrid fitness for binding parS DNA” value was at most 0.2.
For YQTA, the “one-hybrid fitness for binding parS DNA” value was at most 0.2.
On to PCPS, for which the “one-hybrid fitness for binding parS DNA” value is at most 0.2.
As for ELWR, the “one-hybrid fitness for binding parS DNA” value is at most 0.2.
On to EAPY, for which the “one-hybrid fitness for binding parS DNA” value is at most 0.2.
For TVQL the value was at most 0.2; for DMMG, at most 0.2.
Take YGRC: the “one-hybrid fitness for binding parS DNA” value was at most 0.2.
Regarding KRET, the “one-hybrid fitness for binding parS DNA” value was at most 0.2.
For ESTS the value was at most 0.2; for YPLF, at most 0.2.
GVWN: the “one-hybrid fitness for binding parS DNA” value was at most 0.2.
Regarding TEEC, the “one-hybrid fitness for binding parS DNA” value was at most 0.2.
Next, TYNS: at most 0.2.
Turning to TSTR, the “one-hybrid fitness for binding parS DNA” value was at most 0.2.
Turning to SRMW, the “one-hybrid fitness for binding parS DNA” value was at most 0.2.
Next, WGRY: at most 0.2.
With HNLS, the “one-hybrid fitness for binding parS DNA” value was at most 0.2.
For CTQL the value was at most 0.2.
On to STEA, for which the “one-hybrid fitness for binding parS DNA” value is at most 0.2.
Turning to VNWG, the “one-hybrid fitness for binding parS DNA” value was at most 0.2.
Turning to VWKV, the “one-hybrid fitness for binding parS DNA” value is at most 0.2.
In the case of QKIG, the “one-hybrid fitness for binding parS DNA” value was at most 0.2.
Next, AVSG: at most 0.2; QSNM: at most 0.2.
In the case of HRPN, the “one-hybrid fitness for binding parS DNA” value was at most 0.2.
Take NQQS: the “one-hybrid fitness for binding parS DNA” value is at most 0.2.
For QHSN, the “one-hybrid fitness for binding parS DNA” value is at most 0.2.
As to QSAA, the “one-hybrid fitness for binding parS DNA” value is at most 0.2.
Take AHCV: the “one-hybrid fitness for binding parS DNA” value is at most 0.2.
In the case of GGRQ, the “one-hybrid fitness for binding parS DNA” value was at most 0.2.
On to TIHD, for which the “one-hybrid fitness for binding parS DNA” value is at most 0.2.
MMRS: the “one-hybrid fitness for binding parS DNA” value was at most 0.2.
Next, ASVL: at most 0.2; RFAG: 0.941.
For the variant NNIG, the “one-hybrid fitness for binding parS DNA” value is at most 0.2.
NHWR: the “one-hybrid fitness for binding parS DNA” value was at most 0.2.
